The whole screen tested about 300,000 compounds, of which about 22,000 (7.3%) were called active. Inconclusive means that the source gave no clear call. Such entries were picked first, then a sample of the others. Rule as the data show it: active = activity score below about -60%; inconclusive = mostly about -28% to -61%; inactive = positive scores.
Assay: Activators via SNCA 5'UTR binding, MLPCN (AID 1814)
Details: alpha-synuclein 5'UTR reporter, activators screen; hits give low values; tested at 7.5 µM

| Structure (SMILES) | activity score |
| --- | --- |
| C/C(=N\N=C(c1ccccc1)c1ccccc1)c1cccs1 | inconclusive: -55.8% |
| CCOc1ccc(OCC(=O)Nc2nccs2)cc1 | inactive: 69.2% |
| O=C(Nc1ccc2oc(-c3ccncc3)nc2c1)c1ccco1 | inconclusive: -50.6% |
| COc1ccccc1C(=O)Nc1ccc2c(c1)nc(CN1CCN(C(C)=O)CC1)n2C | inconclusive: -57.6% |
| O=C(CSc1n[nH]c(-c2ccccc2)n1)Nc1ncccn1 | inconclusive: -33.9% |
| Cc1cccc(OCC(O)Cn2c(=N)n(CCN3CCCCC3)c3ccccc32)c1 (stereo unspecified) | inconclusive: -58.5% |
| COc1ccc(CN2CCn3ncc(C(=O)Nc4cccc(C)c4)c3C2=O)cc1 | inconclusive: -59.1% |
| O=C1CSC(=NC(=O)c2ccccc2)N1 | inconclusive: -36.4% |
| CC(C)Oc1ccccc1C1Nc2ccccc2C(=O)N1c1ccc2c(c1)OCCO2 (stereo unspecified) | inactive: 68.1% |
| CCN(c1ccccc1)S(=O)(=O)c1ccc(Oc2ccc(-n3ccnc3)cc2)nc1 | inactive: 103% |
| O=C(N/N=C/c1sc2ccccc2c1O)c1cccc2ccccc12 | inactive: 91.6% |
| CC(=O)Nc1cccc(/C(C)=N/NC(=O)c2ccc(Cl)cc2Cl)c1 | inconclusive: -52.3% |
| Cc1cc(Cl)cc2c(N=Nc3ccccc3C(=O)O)c(O)[nH]c12 | active: -67.6% |
| O=C(C[n+]1cn(C(F)F)c2ccccc21)c1ccc(Br)cc1 | inconclusive: -57.8% |
| Cc1ccc(C(=O)/C=C/c2ccc(-c3ccc(C)cc3)o2)cc1 | active: -72.5% |
| Cc1ccc2nc(-c3cc(-c4ccccc4)no3)cn2c1 | inactive: 85.8% |
| Cc1cc(C)c(C(N)=O)c(NC(=O)Nc2ccccc2Cl)n1 | inconclusive: -56.6% |
| c1ccc2c(c1)NCCS2 | inconclusive: -58.2% |
| COC(=O)c1ccc(C#Cc2ccccc2)o1 | inconclusive: -53.1% |
| Nc1ccc2c(c1)Nc1ccccc1CC2 | inconclusive: -52.8% |
| COC(=O)c1cc(=O)n(-c2ccc(F)cc2)c(=Nc2ccc(F)cc2)s1 | inconclusive: -47.5% |
| O=C(N/N=C/c1ccco1)c1cc(C2CC2)[nH]n1 | active: -69.5% |
| CC1=Nc2cc(C(=O)NCCCOC(C)C)ccc2Sc2ccc(C)cc21 | inactive: 76.6% |
| COC(=O)/C=C/c1ccccc1S(=O)(=O)N(Cc1ccccc1)Cc1ccco1 | inactive: 89.4% |

| Structure (SMILES) | activity score |
| --- | --- |
| CC(C)(C)c1ccc(C(=O)O/N=C(\N)c2ccccn2)cc1 | inactive: 94% |
| CN(C)/C=C/C(=O)c1cccc(Oc2ncccn2)c1 | inconclusive: -44.7% |
| O=C(NC1=NCCS1)c1cccc(OC(F)F)c1 | inconclusive: -49.9% |
| Cc1nn(C)c(C)c1/C=N/NC(=O)c1csc2ccccc12 | inconclusive: -56.2% |
| O=[N+]([O-])c1cc([N+](=O)[O-])c2cccnc2c1Oc1ccccc1O | inconclusive: -42.5% |
| O=C(NCCSCc1ccco1)c1ccc(CN2CCOCC2)cc1 | inconclusive: -49.2% |
| Cc1ccc2nc(-c3ccc(N)cc3)sc2c1 | inactive: 90% |
| O=C1CCc2cc(S(=O)(=O)N3CCN(c4ccccc4F)CC3)ccc2N1 | inconclusive: -39.3% |
| COc1cccc(/C=N/N2CCOCC2)c1O | inconclusive: -56.4% |
| COc1ccccc1NC(=O)Nc1cc(F)ccc1F | inconclusive: -60.8% |
| CCN(CC(=O)Nc1c(F)cccc1F)C(=O)/C=C/c1ccc(S(=O)(=O)N2CCCCCC2)cc1 | inactive: 78.4% |
| CCc1cccc(NC(=O)CCS(=O)(=O)c2cc3c(cc2C)NC(=O)CO3)c1 | inconclusive: -43.8% |
| Cn1c(=NC(=O)C2CCCCC2)sc2cc([N+](=O)[O-])ccc21 | inconclusive: -51.6% |
| O=C1N/C(=N\N=C\c2cccnc2)SC1Cc1ccc(SC(F)F)cc1 (stereo unspecified) | inactive: 54.9% |
| CCN(CC)c1ccc(/C=N/n2c(-c3ccccc3Br)n[nH]c2=S)cc1 | inactive: 77.5% |
| COCCNC(=O)c1cc(-c2ccc(-c3ccccc3)cc2)nc2ccccc12 | inconclusive: -61.2% |
| Cc1ccccc1C(=O)Nc1nnc(-c2ccco2)s1 | inactive: 65.1% |
| CC1CCCC(C)N1C(=O)CSc1nnc(-c2cccs2)o1 (stereo unspecified) | active: -81.9% |
| COc1ccc(/C=C/C(=O)NC(=S)NNC(=O)Cc2cccs2)cc1 | inconclusive: -46.5% |
| O=C(Nc1ccccc1N1CCCC1)c1cccc(-c2cc3ccccc3oc2=O)c1 | inconclusive: -45.9% |
| CC1CC=C(c2ccccc2)C(=S)N1 (stereo unspecified) | inconclusive: -56.5% |
| O=C(Nc1ccccn1)c1ccc(-c2ccccc2)cc1 | inactive: 63.3% |
| OCCCn1c(C2CCCN2c2nc(-c3ccc(F)cc3)cs2)nc2cc(C(F)(F)F)ccc21 (stereo unspecified) | inconclusive: -53.4% |
| Cc1cc(C)c(C)c(N=Nc2nc3ccccc3n2C)c1C | active: -74.8% |

| Structure (SMILES) | activity score |
| --- | --- |
| Clc1cc(Cl)c2nc(N3CCCCC3)sc2c1 | active: -152% |
| Cc1cc(C)c2nc(SCC(=O)N3CC(=O)Nc4ccccc43)c(C#N)cc2c1 | inactive: 66.6% |
| O=[N+]([O-])c1ccc(O)c(Nc2ncnc3ccccc23)c1 | inconclusive: -60.8% |
| CC(C)(C)SCCNC(=O)/C=C/c1ccccc1 | active: -113% |
| Cc1ccc(NC(=O)c2cc(C)no2)cc1 | active: -74.9% |
| C=CCSc1nc2c(cnn2-c2ccccc2)c(=O)n1N | inactive: 74.2% |
| O=C1CSC(c2ccccn2)N1c1ccc(Cl)c(Cl)c1 (stereo unspecified) | inconclusive: -38% |
| O=[N+]([O-])c1ccc(S(=O)(=O)NCCc2ccncc2)cc1 | inconclusive: -30.5% |
| Cc1cccc(C(=O)Nc2sc3c(c2C#N)CCCCC3)c1 | inconclusive: -56.1% |
| COC(=O)c1cc(=O)n(CCc2ccc(OC)cc2)c(=Nc2ccc(F)c(Cl)c2)s1 | inconclusive: -28.1% |
| COc1ccc(/C=N/Nc2nc3ccccc3c(=O)[nH]2)cc1 | active: -125% |
| Cc1cc(N(C)/N=C/c2ccccc2)nc(-c2ccccc2O)n1 | active: -119% |
| CCC(C)(C)c1ccc(Oc2ccc(NC(=O)COC(=O)C3=COCCO3)cc2)cc1 | inactive: 90.6% |
| CCOc1ccc(NC(=O)c2cc(OC)nc3ccccc23)cc1 | inactive: 83% |
| Cc1ccnc2nc(C(=O)Nc3nccs3)nn12 | inconclusive: -60.3% |
| COc1cccc(-c2csc(N3CCN(C(=S)Nc4ccccc4OC)CC3)n2)c1 | inconclusive: -46% |
| Nc1ncnc(N)c1N=Nc1ccccc1 | inactive: 112% |
| Cc1ccc(C(=O)Nc2ccc3c(c2)OCCO3)cc1 | inactive: 89% |
| O=C(c1ccc([N+](=O)[O-])o1)N1CCN(c2nc3c(F)cc(F)cc3s2)CC1 | inconclusive: -59.7% |
| CC(NC(=O)c1sc2ccccc2c1Cl)C1CCCO1 (stereo unspecified) | active: -65.4% |
| Cc1ccc2oc(C(=O)Nc3nnc(CC(C)C)s3)c(C)c2c1 | inconclusive: -40.1% |
| COc1ccccc1CC(=O)Nc1cc(C)ccn1 | inconclusive: -61.1% |
| CCN(CC)S(=O)(=O)c1cc(C(=O)Nc2ccccc2[N+](=O)[O-])ccc1Cl | inconclusive: -48.8% |
| Cc1ccc(N=Cc2ccc[nH]2)c(O)c1 | inconclusive: -61.3% |

| Structure (SMILES) | activity score |
| --- | --- |
| CC(C)(C)C(=O)Nc1nc2cc3c(cc2s1)OCO3 | active: -144% |
| COc1cccc(CSc2nc3ccccc3cc2C=O)c1 | inactive: 71% |
| COc1cc(OC)cc(C(=O)Nc2ccc([N+](=O)[O-])cn2)c1 | inconclusive: -46.7% |
| Cc1ccc(NC(=O)c2ccccc2)s1 | inconclusive: -48.4% |
| CCOC(=O)c1ccc(NC(=S)NC2CCCC2)cc1 | inconclusive: -61% |
| COc1cccc2cc(-c3ccnc(N)n3)oc12 | active: -80.1% |
| CC(=O)c1c(C)[nH]c(C(=O)OCC(=O)Nc2cccc(S(=O)(=O)N3CCCC3)c2)c1C | inconclusive: -44% |
| O=C(Cc1ccccc1[N+](=O)[O-])NCc1ccccc1Cl | active: -147% |
| CCOc1ccc(/C=N/NC2=NCCCCC2)cc1 | inconclusive: -47.8% |
| COc1cc(SC)ccc1C(=O)Nc1cccc(C)n1 | active: -87.5% |
| Cc1cccc(C)c1OCc1cc(C(=O)NCC2CCCCC2)no1 | inconclusive: -26.8% |
| Cc1ccc(COc2ccc3c(c2)OCO3)cc1 | active: -114% |
| COc1ccc2[nH]c(=O)c(CN(Cc3cccs3)S(=O)(=O)c3cccc4nsnc34)cc2c1 | inactive: 75.9% |
| COc1ccc(C2C(C#N)=C(N)N(c3ccccc3)C3=C2C(=O)CCC3)cc1Cn1cc([N+](=O)[O-])cn1 (stereo unspecified) | inactive: 57.9% |
| Cc1cc(=O)[nH]c(SCC(=O)Nc2cccc3ccccc23)c1C#N | inconclusive: -61.2% |
| Cc1cccc(NC(=O)c2ccccc2Br)n1 | inconclusive: -58.8% |
| Cc1cc(/C=C2\C(=N)N3N=CSC3=NC2=O)c(C)n1Cc1ccccc1 | inconclusive: -47.9% |
| CN1CCc2c(sc3c2C(=O)NC(c2cn(Cc4ccccc4)c4ccccc24)N3)C1 (stereo unspecified) | inactive: 63.7% |
| CC(=O)OCC1OC(n2cc(F)c(=O)[nH]c2=O)C(OC(C)=O)C1OC(C)=O (stereo unspecified) | active: -181% |
| O=[N+]([O-])c1cccc(/C=N/Nc2nc(C(Cl)(Cl)Cl)nc3ccccc23)c1 | inconclusive: -46.5% |
| Cc1cccc(Oc2coc3cc(OC(=O)c4cncc(Br)c4)ccc3c2=O)c1 | active: -73.1% |
| CCOC(=O)c1ccc(Nc2ccc([N+](=O)[O-])cn2)cc1 | inconclusive: -57.8% |
| O=c1[nH]c(Nc2ccccc2Cl)cc2ccccc12 | inconclusive: -59.3% |
| Fc1ccc(C2=CC(c3ccco3)n3nnnc3N2)cc1 (stereo unspecified) | inconclusive: -47.6% |

Reference: PubChem BioAssay AID1814 (Broad Institute, 2009)
